Data reported in PMC4336329 (PLoS ONE, 2015).
The campaign covered roughly 310,000 compounds. About 2,200 (0.71%) showed an effect of 50% or more. Effects have a minus sign here. The list shows a part of the results.

Target: human ether-à-go-go-related gene (hERG) potassium channel (human, UniProt Q12809)
Assay: primary screen, population patch clamp on CHO cells stably expressing hERG

human ether-à-go-go-related gene (hERG) potassium channel, sequence (Q12809 whole entry, looked up): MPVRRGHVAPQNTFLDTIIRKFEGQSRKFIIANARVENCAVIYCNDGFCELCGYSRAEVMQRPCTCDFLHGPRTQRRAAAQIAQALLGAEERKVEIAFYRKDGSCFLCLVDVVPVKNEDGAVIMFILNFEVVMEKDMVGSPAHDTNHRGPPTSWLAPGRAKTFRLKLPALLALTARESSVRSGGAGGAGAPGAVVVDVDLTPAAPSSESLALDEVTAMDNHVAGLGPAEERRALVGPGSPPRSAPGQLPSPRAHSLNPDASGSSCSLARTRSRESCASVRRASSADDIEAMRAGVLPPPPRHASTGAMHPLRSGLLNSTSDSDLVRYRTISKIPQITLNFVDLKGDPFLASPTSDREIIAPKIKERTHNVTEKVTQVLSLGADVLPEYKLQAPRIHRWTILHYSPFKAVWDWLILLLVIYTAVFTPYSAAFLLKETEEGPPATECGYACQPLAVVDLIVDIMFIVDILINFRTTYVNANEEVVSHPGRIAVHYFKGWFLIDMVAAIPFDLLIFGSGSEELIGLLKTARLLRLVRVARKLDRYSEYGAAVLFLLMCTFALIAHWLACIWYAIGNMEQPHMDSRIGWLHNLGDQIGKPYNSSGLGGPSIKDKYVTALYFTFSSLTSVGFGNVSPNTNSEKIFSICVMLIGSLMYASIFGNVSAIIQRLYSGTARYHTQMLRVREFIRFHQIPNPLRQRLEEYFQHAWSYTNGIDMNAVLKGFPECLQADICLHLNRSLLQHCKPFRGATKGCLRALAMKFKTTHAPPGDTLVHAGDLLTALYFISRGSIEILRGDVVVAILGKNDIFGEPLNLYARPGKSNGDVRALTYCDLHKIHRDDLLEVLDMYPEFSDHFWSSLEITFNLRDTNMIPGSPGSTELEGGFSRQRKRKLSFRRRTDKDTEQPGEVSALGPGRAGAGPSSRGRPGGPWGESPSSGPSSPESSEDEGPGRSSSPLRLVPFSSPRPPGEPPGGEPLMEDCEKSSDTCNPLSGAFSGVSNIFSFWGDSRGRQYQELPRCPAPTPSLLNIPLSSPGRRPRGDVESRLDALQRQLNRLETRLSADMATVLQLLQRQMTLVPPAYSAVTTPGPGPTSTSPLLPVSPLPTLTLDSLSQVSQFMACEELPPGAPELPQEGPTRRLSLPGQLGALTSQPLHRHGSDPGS

First: FC(F)(F)c1cc(C(F)(F)F)c2ccc(Oc3ccccc3)nc2n1
Second: c1cncc(-c2nc(NCc3ccco3)c3ccccc3n2)c1
The “hERG current change (%, negative = inhibition) at 1uM” value of the first is higher: 8.38% for the first, 4.16% for the second.

Compared with `O=c1[nH]c(C2CCN(S(=O)(=O)c3ccccc3)CC2)nc2c1nnn2Cc1c(F)cccc1Cl`, `CCc1nc(Nc2ccc(OC)c(OC)c2)c2nnn(Cc3ccccc3Cl)c2n1` is higher in “hERG current change (%, negative = inhibition) at 1uM” value: 8.03% for the first, 12.1% for the second.

Compared with `CC(Sc1nc2sccc2c(=O)n1-c1ccccc1)C(N)=O` (stereo not drawn), `Cc1ccc(-c2csc3nc(SCC(N)=O)n(Cc4ccccc4)c(=O)c23)cc1` is higher in “hERG current change (%, negative = inhibition) at 1uM” value: 9.93% for the first, 10.1% for the second.

Going from `COCc1[nH]nc2c1C(c1sccc1C)C(C#N)=C(N)O2` (stereo not drawn) to `Cc1cc(C)c2c(N)c(C(=O)Nc3ccc(F)cc3)sc2n1`, the “hERG current change (%, negative = inhibition) at 1uM” value rises from 5.81% to 9.82%.

First: COc1ccc(C(=O)NCC(=O)N2CCC3(CC2)NCCc2[nH]cnc23)cc1
Second: O=C(c1nc[nH]c1C(=O)N1CCc2ccccc2C1)N1CCc2ccccc2C1
The “hERG current change (%, negative = inhibition) at 1uM” value of the first is higher: 15.5% for the first, 13.6% for the second.

First: COc1ccccc1NC(=O)C1C2C=CC(O2)C1C(=O)O (stereo not drawn)
Second: O=C(CNC(=O)c1ccc(Br)o1)NNC(=O)COc1ccccc1Cl
The “hERG current change (%, negative = inhibition) at 1uM” value of the first is lower: 7% for the first, 10.1% for the second.

Compared with `CCN(CC)S(=O)(=O)c1ccc(C(=O)Nc2nnc(NC(=S)Nc3ccccc3)s2)cc1`, `O=C(CSCC(=O)OCn1nnc2ccccc2c1=O)Nc1ccc(Cl)cc1` is higher in “hERG current change (%, negative = inhibition) at 1uM” value: 6.94% for the first, 12.4% for the second.

First: CCOC(=O)C1=C(O)C(=O)N(Cc2ccccc2)C1
Second: CC(NC(=O)CCN1C(=O)c2ccccc2S1(=O)=O)c1ccccc1 (stereo not drawn)
The “hERG current change (%, negative = inhibition) at 1uM” value of the first is lower: 10.8% for the first, 12.6% for the second.

Going from `COC(=O)c1sc(SC)c(S(=O)(=O)C(C)C)c1N/N=C(\C#N)S(=O)(=O)c1ccccn1` to `Cc1cc(/C=C(\C#N)C(=O)OCC(=O)Nc2ccc(OC(F)F)cc2)c(C)n1CC(C)C`, the “hERG current change (%, negative = inhibition) at 1uM” value falls from 10.4% to 3.2%.

First: CCC(c1nc2ccccc2c(=O)n1CCCn1ccnc1)N1C(=O)c2ccccc2C1=O (stereo not drawn)
Second: CCO[C@H]1OC(C(=O)NCc2ccccc2)=C[C@@H](c2ccccc2)[C@@H]1CCCO
The “hERG current change (%, negative = inhibition) at 1uM” value of the first is lower: -9.91% for the first, 10.3% for the second.

First: CC(=O)N(Cc1ccccc1)c1nc(-c2ccccc2)cs1
Second: Cc1ccc(/C=N/NC(=O)CSc2nnc(-c3ccccc3)n2-c2ccc(Cl)cc2)o1
The “hERG current change (%, negative = inhibition) at 1uM” value of the first is higher: 8.75% for the first, 7.81% for the second.

Going from `CCc1cc(CNC(=O)CC2C(=O)NCCN2Cc2cccc(OC)c2)on1` (stereo not drawn) to `CCC(CC)C(=O)NCCc1cc2ccc(OC)cc2[nH]c1=O`, the “hERG current change (%, negative = inhibition) at 1uM” value rises from -4.31% to -2%.

Going from `Fc1ccc(-c2nnc(NC3=NCCCCC3)o2)cc1` to `Clc1ccccc1-c1nnc(-c2cccnc2)o1`, the “hERG current change (%, negative = inhibition) at 1uM” value rises from -0.297% to 12.6%.

Compared with `COc1ccccc1N1CCN(C2CCCN(C(=O)CCc3c(C)noc3C)C2)CC1` (stereo not drawn), `O=C(CN1C(=O)C2CCCCN2C(=O)c2ccccc21)N1CCCc2ccccc21` (stereo not drawn) is higher in “hERG current change (%, negative = inhibition) at 1uM” value: 6.12% for the first, 15.1% for the second.

Compared with `CCOc1ccc(S(=O)(=O)N(CC(=O)NC2CCCC2)c2ccc(F)cc2)cc1`, `Cc1cc(C(=O)COC(=O)c2ccc(O)cc2)c(C)n1CCc1ccc(F)cc1` is lower in “hERG current change (%, negative = inhibition) at 1uM” value: 13.4% for the first, 11% for the second.

First: CN(C)CCCNC(NC(=O)/C=C/c1ccccc1)C(Cl)(Cl)Cl (stereo not drawn)
Second: CCN(CC)CCCNC(=O)c1nn2c(C(F)(F)F)cc(-c3ccccc3)nc2c1Cl
The “hERG current change (%, negative = inhibition) at 1uM” value of the first is higher: 13.5% for the first, -3.58% for the second.

Going from `O=C(c1ccc(N2CCN(C(=O)c3ccc(F)cc3F)CC2)cc1)c1cccc(F)c1` to `CCOC(=O)c1cccc(NC(=S)N2CCN(c3ncc4c(=O)c(C(=O)O)cn(CC)c4n3)CC2)c1`, the “hERG current change (%, negative = inhibition) at 1uM” value rises from 6.7% to 14.5%.

Compared with `CCO[C@H]1OC(C(=O)NCc2ccccc2)=C[C@@H](C(C)(C)C)[C@@H]1CCCO`, `COc1ccc(CNC(=O)c2cc(=O)c3cc(C)c(C)cc3o2)cc1` is higher in “hERG current change (%, negative = inhibition) at 1uM” value: 13.1% for the first, 14.6% for the second.

First: COc1ccc(C2CC(=O)c3c([nH]c(C(=O)OC(C)C)c3C)C2)cc1OC (stereo not drawn)
Second: Cn1c(CBr)c(C(=O)c2ccc([N+](=O)[O-])cc2)c(=O)n(C)c1=O
The “hERG current change (%, negative = inhibition) at 1uM” value of the first is lower: 2.15% for the first, 9.7% for the second.

Compared with `CS(=O)(=O)N1N=C(c2ccc(Br)cc2)CC1c1cccs1` (stereo not drawn), `N/C(=N\OC(=O)COc1ccc(Br)cc1)c1cccc([N+](=O)[O-])c1` is lower in “hERG current change (%, negative = inhibition) at 1uM” value: 15.9% for the first, 7.88% for the second.

Compared with `CC(C)(C#N)Nn1cnnc1`, `O=C(N/N=C/c1cccnc1)c1ccc(Cn2cc([N+](=O)[O-])cn2)o1` is lower in “hERG current change (%, negative = inhibition) at 1uM” value: 9.44% for the first, 8.59% for the second.
